Experimental data taken from PubChem BioAssay AID1508623 (National Center for Advancing Translational Sciences (NCATS), 2021).
Out of some 48,000 compounds screened, about 450 (0.94%) were called active. Another 19% or so got no clear call; they are omitted. Calls come from the whole dose curve; as a rule, active = well fitted inhibition curve with a large enough effect; inconclusive = small, poorly fitted or top-dose-only effect; inactive = no such curve, though single readings can be large or run the other way. Some of the results follow.

assay: Primary qHTS for Identification of Small Molecule Inhibitors of Huntingtin Promoter Activity; conditions: HEK293 HTT promoter firefly luciferase reporter (activity 0% = vehicle and -100% = no light), 24 h; series mostly up to 57.5 µM; activity change, negative = inhibition: at the top concentration; note: nearly all actives have a fitted effect of over 50% in size
Method in brief: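 HEK293 luciferase promoter-reporter cells (2,500/well) plated 24 h, then compounds added at up to 57.5 uM final for 24 h at 37 °C. Firefly luminescence by Dual-Glo, normalized to vehicle (0%) and zero RLU (-100%).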

Activity change, negative = inhibition, inactive:
Cc1ccc2c(n1)Oc1ccc(C(C)C(=O)OCC(=O)N(C)C)cc1C2 (configuration not stated)
Cc1ccc(NC(=O)CCOc2ccccc2)cc1 47.7%
COc1ccccc1N1CCN(C(=O)Cn2c(=O)n3nc(-c4ccc(C)cc4)nc3c3ccccc32)CC1 15.4%
COc1ccc(NC(=O)c2cccc(N3CCCS3(=O)=O)c2)cc1OC 42.8%
Cc1nc(N2CCCC2)ncc1C(=O)NCc1cccc(Cl)c1 -20.2%
CCc1ccc(NC(=O)CSc2nc3ccccc3nc2Cc2ccc(C)cc2)cc1 0.933%
COc1ccc(C)cc1NC(=O)CN1c2ccccc2S(=O)(=O)c2ccccc21 -38.8%
Cc1nnc(N2C(=O)c3oc4ccccc4c(=O)c3C2c2ccc(C(C)(C)C)cc2)s1 (configuration not stated) -13.1%
COCCNC(=O)c1ccc2c(=O)n(CCc3ccccc3)c(SCC(=O)CC(=O)OC)nc2c1 -16.3%
CCC(C)NC(=O)CSc1nc2cc3c(cc2c(=O)n1CCCC(=O)NCCc1ccc(OC)c(OC)c1)OCO3 (configuration not stated) -19.2%
COc1cccc(-c2nc(S(=O)(=O)c3ccccc3)c(N3CCCCC3)o2)c1 1.84%
Cc1cccc(OCCSc2nc3ccccc3n2CC(=O)N2CCOCC2)c1 -17.1%
COc1ccccc1CNC(=O)c1ccc(CS(=O)(=O)c2c(Cl)cccc2Cl)o1 -7.62%
CC(=O)OCC1=C(C(=O)O)N2C(=O)[C@@H](NC(=O)CSc3ccncc3)[C@H]2SC1 -3.26%
CCCn1c(=O)c2sccc2n2c(CCCC(=O)N3CCN(c4ccccc4OC)CC3)nnc12 -8.46%
Cc1ccc2c(=O)cc(C(=O)Nc3sc4c(c3C(=O)NCc3ccco3)CCC4)oc2c1 -2.72% [at 11.5 µM]
NC1CCC(Nc2nc(Nc3ccc(C(=O)N4CCCCC4)cc3)c3ncn(-c4cccc(F)c4)c3n2)CC1 (configuration not stated) 4.05%
O=C(NCc1ccccc1F)C1CCN(c2nnc(-n3cccc3)s2)CC1 -14.3%
COc1ccccc1NC(=O)CSc1nnc(-c2ccccc2C)o1 60.3%
COc1cc(NC(=O)CCc2c(C)nn(-c3ccc(N4CCOCC4)nn3)c2C)cc(OC)c1OC -5.82%
COc1ccc2c(c1)c(=O)c(C(=O)c1ccccc1)cn2CC(=O)Nc1ccc2c(c1)OCCO2 -14.2%
O=C(NCC(c1ccc(Cl)cc1)N1CCOCC1)c1ccccc1F (configuration not stated) -12%
CCS(=O)(=O)CCn1c([N+](=O)[O-])cnc1C 1.11%
COc1cccc(C2CC(=O)Nc3c2c(=O)[nH]c2nc4ccccc4n32)c1 (configuration not stated) -5.34%
O=C1CCc2cc(OCCCCc3nnnn3C3CCCCC3)ccc2N1
O=C(COc1ccc([N+](=O)[O-])cc1)Nc1nc2c(s1)CCCC2 -13%
CCc1ccc(NC(=O)Cn2c(=O)n(CCCCC(=O)NCCc3ccc(Cl)cc3)c(=O)c3ccccc32)cc1 -2.66%
Cc1ccc2ncc(C(=O)Nc3ccc(OC(F)(F)F)cc3)c(=O)n2c1 -23%
O=c1[nH]c2ccc(NCc3ccc(-c4ccc(Br)cc4)o3)cc2[nH]1 -24.6%
COc1cc(OC)cc(-c2nc(-c3ccc4c(c3)[nH]c(=O)n4C)no2)c1 -6.85%
Cc1ccc(-c2cc(C(=O)NCc3ccccc3Cl)c3ccccc3n2)cc1C -6.9%
O=C(Nc1ccccc1C(F)(F)F)n1ncc2cc(Cl)ccc21 -3.21%
COc1ccc2cc3c(N)nn(C(=O)c4ccc(OC)c(OC)c4)c3nc2c1 7.15%
CCOC(=O)c1[nH]c2ccccc2c1NC(=O)c1ccc(Br)cc1 -6.19%
COc1cccc(CNC(=O)C2CCN(S(=O)(=O)c3ccc4c(c3)CCCN4C(C)=O)CC2)c1 -8.53%
CCCCOc1cc(C(=O)NCCN(CC)CC)c2ccccc2n1 -7.47%
CCOc1ccc(-c2nc3c(c(SCC(=O)N4CCCCC4)n2)Cc2cccc(OC)c2O3)cc1 -10.6%
CCCn1c2ccccc2c2cnn(CC(=O)N3CCN(c4ccccc4)CC3)c(=O)c21 -10.1%
Cc1cccc(CSc2ncc(Cl)c(C(=O)Nc3nc4ccc(F)cc4s3)n2)c1 3.34%
Cc1ccc2nc3c(cc(C#N)c(=O)n3-c3nnc(SCc4ccccc4)s3)c(=O)n2c1 12.4%
CCOc1ccc(NC(=O)c2ncoc2-c2ccco2)cc1 52.5%
O=C(Cn1c(=O)nc(-c2ccccc2)c2cc(Cl)ccc21)Nc1ccc(F)c(Cl)c1 -15.1%
COc1cccc(CNC(=O)c2ccc(-n3c(C)cc4c3CCC(C)C4)cc2)c1 (configuration not stated) 12.5%
CCOc1cc(C#N)c(NC(=O)Cn2nnc(-c3ccc(C)cc3)n2)cc1OCC -21%
COc1ccccc1OC(C)C(=O)Nc1cccc(-c2nc3ccccc3o2)c1 (configuration not stated) 2.95%
CCCSc1nc2c([nH]c3ccccc32)c(=O)n1C -2.32%
O=C(NCc1cccnc1)c1nn(-c2ccc(F)cc2)nc1CO -19%
CCc1ccc(NS(=O)(=O)c2ccc3[nH]cc(C(=O)NCCCOC(C)C)c(=O)c3c2)cc1 -15.5%
Cc1ccc(Cl)cc1N1CCN(S(=O)(=O)c2ccc3c(c2)CCN3C(=O)C2CCC2)CC1 -7.14%
Cc1coc2c1C(=O)C(=O)c1c-2ccc2c(C)cccc12 -6.22%
COc1ccc(NC(=O)c2oc3ccccc3c2NC(=O)COc2ccc(C(C)C)cc2)c(OC)c1 -11%
O=C(Nc1ccccc1Cl)c1sc2cccc(Cl)c2c1Cl 16.1%
Cc1ccc(N(CC(=O)Nc2ccc(Cl)cc2)S(=O)(=O)c2cccc3nonc23)cc1 -14%
COc1cccc(NC(=O)Cn2c(=O)n(Cc3ccccc3)c(=O)c3ccccc32)c1 -19.3%
CCSc1nc2n(n1)C(c1ccc(C(=O)O)cc1)C(C(=O)Nc1ccccc1C)=C(C)N2 (configuration not stated) 5.37%
COc1ccc(-c2nc3c(c(SCC(=O)N4CCCCC4)n2)Cc2cc(Cl)ccc2O3)cc1 -9.44%
CCCS(=O)(=O)c1nc(S(=O)(=O)c2ccc(C)cc2)c(NC)s1 -16.9%
Cc1ccc(-n2ncc(C(=O)N3CCCCC3)c2C2CCN(C(=O)OC(C)(C)C)CC2)c(C)c1 -19.1%
CCOC(=O)c1c(NC(=O)c2ccc(OC)cc2)sc2c1CCCCC2 -6.86% [at 11.5 µM]
O=C(COc1ccccc1)Nc1ccc2nc(SCC(=O)N3CCOCC3)sc2c1 -19.2%
O=C(O)c1ccccc1-c1ccc(C(F)(F)F)cc1 9.19%
Cc1ccc(CSc2nnc3[nH]c(=O)cc(-c4ccccc4)n23)cc1 -6.1%
